Data from PMC4242493.
The list shows a part of the results. The list includes weakly bound sequences.

Each sequence was assayed against MaxL homodimer (UniProt P61244) (assay: universal protein-binding microarray (PBM)). Settings: PBS-based mixture, 10 nM His-tagged protein dimer, 2% milk, 200 ng/uL BSA, 50 ng/uL salmon testes DNA, 0.02% TX-100; detection with Alexa 488 anti-His …; high values mean tight binding; most listed sequences are background and not binding sites; double strand, one strand shown.
Chain of UniProt P61244 (P61244 whole entry): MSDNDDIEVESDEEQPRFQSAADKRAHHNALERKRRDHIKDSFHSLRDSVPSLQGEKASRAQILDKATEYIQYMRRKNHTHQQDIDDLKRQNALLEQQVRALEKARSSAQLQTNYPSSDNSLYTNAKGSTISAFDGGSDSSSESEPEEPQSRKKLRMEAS
Sequence AGGCACGG has a binding signal (normalized occupancy) of 0.0755.
In the case of GTGACCAC, the binding signal (normalized occupancy) is reported as 0.0905.
With CCGCGCCC the binding signal (normalized occupancy) was 0.0711.
With ACTTATCA the binding signal (normalized occupancy) was 0.0772.
Sequence CGGATGAA has a binding signal (normalized occupancy) of 0.0745.
With AGGATAGG the binding signal (normalized occupancy) was 0.0757.
With ATGTGACG the binding signal (normalized occupancy) was 0.0922.
CATGGAGG showed a binding signal (normalized occupancy) of 0.0891.
Sequence GTACGTCA has a binding signal (normalized occupancy) of 0.0774.
CAACCCGG showed a binding signal (normalized occupancy) of 0.0721.
Sequence CCTACTCG has a binding signal (normalized occupancy) of 0.0731.
Sequence AACATTAA has a binding signal (normalized occupancy) of 0.0766.
GTCGTATA gave a binding signal (normalized occupancy) of 0.0753.
ACAAACCC was tested, and the binding signal (normalized occupancy) was 0.0812.
In the case of AGGCTGTG, the binding signal (normalized occupancy) is reported as 0.0774.
In the case of AATCACGA, the binding signal (normalized occupancy) is reported as 0.0856.
AGTAAAGG gave a binding signal (normalized occupancy) of 0.0777.
For GGGATCCA, the binding signal (normalized occupancy) was 0.0773.
In the case of CGGGTCTC, the binding signal (normalized occupancy) is reported as 0.0802.
With CCTCCATA the binding signal (normalized occupancy) was 0.0757.
Work on AATTAGCG yielded a binding signal (normalized occupancy) of 0.0757.
For CATGGCAG, the binding signal (normalized occupancy) was 0.0887.
For CCATGATC, the binding signal (normalized occupancy) was 0.0848.
Sequence GCTGTCCA has a binding signal (normalized occupancy) of 0.0722.
GTATCCAA was tested, and the binding signal (normalized occupancy) was 0.0804.
For AAGAACAT, the binding signal (normalized occupancy) was 0.08.
AGCCCGTA was tested, and the binding signal (normalized occupancy) was 0.0701.
For ATCGTCGA, the binding signal (normalized occupancy) was 0.0747.
For CGGAAACC, the binding signal (normalized occupancy) was 0.0708.
CCTGCTTC was tested, and the binding signal (normalized occupancy) was 0.0796.
For ACAGGAAT, the binding signal (normalized occupancy) was 0.0733.
Work on CACTTGCG yielded a binding signal (normalized occupancy) of 0.0708.
With AGTCGACA the binding signal (normalized occupancy) was 0.0694.
With CTCCCATC the binding signal (normalized occupancy) was 0.0791.
CGCTTAAA showed a binding signal (normalized occupancy) of 0.0748.
Sequence CGTGGCCA has a binding signal (normalized occupancy) of 0.0949.
Sequence GATCCGGC has a binding signal (normalized occupancy) of 0.0715.
AACCTAAT showed a binding signal (normalized occupancy) of 0.0761.
GAAAGTCC showed a binding signal (normalized occupancy) of 0.0715.
For AGCTTGGG, the binding signal (normalized occupancy) was 0.067.
In the case of CGATTTCA, the binding signal (normalized occupancy) is reported as 0.072.
CAAGAAGA showed a binding signal (normalized occupancy) of 0.0723.
AGCGCGAG gave a binding signal (normalized occupancy) of 0.0756.
GCTGATAA gave a binding signal (normalized occupancy) of 0.0726.
ATCCTCAG was tested, and the binding signal (normalized occupancy) was 0.0715.
ATACCAGG showed a binding signal (normalized occupancy) of 0.0785.
TCAATAAA showed a binding signal (normalized occupancy) of 0.0772.
Sequence GACAACGA has a binding signal (normalized occupancy) of 0.0756.
For ACGTAACG, the binding signal (normalized occupancy) was 0.0807.
In the case of GCCGGAAA, the binding signal (normalized occupancy) is reported as 0.0673.
CAAAAAAC gave a binding signal (normalized occupancy) of 0.0728.
ATGTTAGA showed a binding signal (normalized occupancy) of 0.087.
CTCCCTCC was tested, and the binding signal (normalized occupancy) was 0.0789.
In the case of CTGGCGTA, the binding signal (normalized occupancy) is reported as 0.0703.
In the case of ACGCCTCC, the binding signal (normalized occupancy) is reported as 0.0771.
CAAGAAAA showed a binding signal (normalized occupancy) of 0.0705.
In the case of CGTGGATC, the binding signal (normalized occupancy) is reported as 0.0908.
In the case of GGGGGTAA, the binding signal (normalized occupancy) is reported as 0.0894.
GAATTAGC gave a binding signal (normalized occupancy) of 0.0687.
With AAGAGATT the binding signal (normalized occupancy) was 0.0754.
ACCGCGCT was tested, and the binding signal (normalized occupancy) was 0.0774.
CGAGCGCG was tested, and the binding signal (normalized occupancy) was 0.0726.
GAAATCAA was tested, and the binding signal (normalized occupancy) was 0.075.
ACCTCCCC showed a binding signal (normalized occupancy) of 0.0791.
ACAACTGT showed a binding signal (normalized occupancy) of 0.0734.
AGTCGGAG gave a binding signal (normalized occupancy) of 0.0653.
TGACCTAA gave a binding signal (normalized occupancy) of 0.0776.
Work on CCGCCGCG yielded a binding signal (normalized occupancy) of 0.0721.
ATCTGTCC gave a binding signal (normalized occupancy) of 0.0767.
In the case of GCGCTTCA, the binding signal (normalized occupancy) is reported as 0.0716.
CGCCCTTC gave a binding signal (normalized occupancy) of 0.0703.
For GTACACGA, the binding signal (normalized occupancy) was 0.0882.
CAAAATGG gave a binding signal (normalized occupancy) of 0.0769.
AAGGCGGA gave a binding signal (normalized occupancy) of 0.0681.
CCGCGACG showed a binding signal (normalized occupancy) of 0.0667.
With GTATGGTA the binding signal (normalized occupancy) was 0.086.
Work on GAGAGCAC yielded a binding signal (normalized occupancy) of 0.0743.
GTTCTCGA showed a binding signal (normalized occupancy) of 0.0775.
CATCAACA was tested, and the binding signal (normalized occupancy) was 0.0833.
In the case of ATGCAGCG, the binding signal (normalized occupancy) is reported as 0.0789.
CCTTGCTA showed a binding signal (normalized occupancy) of 0.0757.
In the case of AGATCAAC, the binding signal (normalized occupancy) is reported as 0.0743.
Work on CGATCGGC yielded a binding signal (normalized occupancy) of 0.0727.
CAGATACG gave a binding signal (normalized occupancy) of 0.0757.
AACTACTT was tested, and the binding signal (normalized occupancy) was 0.0708.
TAGGAAAA gave a binding signal (normalized occupancy) of 0.0729.
Sequence CGCAAACC has a binding signal (normalized occupancy) of 0.0692.
Work on AACCGGTC yielded a binding signal (normalized occupancy) of 0.0695.
In the case of ATATTACA, the binding signal (normalized occupancy) is reported as 0.0825.
GCGTCGAC gave a binding signal (normalized occupancy) of 0.0729.
For ATTTCACA, the binding signal (normalized occupancy) was 0.0827.
With CCTCGGAA the binding signal (normalized occupancy) was 0.0713.
With CAAGTATG the binding signal (normalized occupancy) was 0.0761.
Sequence GACAGAGA has a binding signal (normalized occupancy) of 0.0724.
For AATGACGG, the binding signal (normalized occupancy) was 0.0719.
GACTTGTA was tested, and the binding signal (normalized occupancy) was 0.0839.
In the case of CTCCCCTC, the binding signal (normalized occupancy) is reported as 0.0763.
For AGATCAAT, the binding signal (normalized occupancy) was 0.0763.
With AATTAACC the binding signal (normalized occupancy) was 0.0744.
AGGTCGAT was tested, and the binding signal (normalized occupancy) was 0.0683.
With AGCAGGAC the binding signal (normalized occupancy) was 0.0719.
Work on ATTTGACA yielded a binding signal (normalized occupancy) of 0.0756.
GACCATGA gave a binding signal (normalized occupancy) of 0.0823.
CCCCTCCG showed a binding signal (normalized occupancy) of 0.0772.
GGCACTAC showed a binding signal (normalized occupancy) of 0.0766.
ATGAGTAC showed a binding signal (normalized occupancy) of 0.0839.
GTAGATAC was tested, and the binding signal (normalized occupancy) was 0.0776.
With AGAGTATA the binding signal (normalized occupancy) was 0.0769.
GTCTGCCA showed a binding signal (normalized occupancy) of 0.0726.
Sequence AAGACGCA has a binding signal (normalized occupancy) of 0.0721.
AAGTGGTG was tested, and the binding signal (normalized occupancy) was 0.0758.
GCGCTGAA was tested, and the binding signal (normalized occupancy) was 0.0703.
Work on CACTTTTA yielded a binding signal (normalized occupancy) of 0.0728.
In the case of AGTCAGTG, the binding signal (normalized occupancy) is reported as 0.0718.
With AACACCCA the binding signal (normalized occupancy) was 0.0814.
Work on CGGTGTAA yielded a binding signal (normalized occupancy) of 0.0769.
AAGACCTA gave a binding signal (normalized occupancy) of 0.0715.
In the case of AGTGCGCG, the binding signal (normalized occupancy) is reported as 0.0797.
Sequence AATGCCGA has a binding signal (normalized occupancy) of 0.0701.
TATCCATA showed a binding signal (normalized occupancy) of 0.0866.
GCGAGGAA gave a binding signal (normalized occupancy) of 0.0761.
CTCATAAG gave a binding signal (normalized occupancy) of 0.0817.
With AGCTTGAC the binding signal (normalized occupancy) was 0.0693.
Sequence GACTTAAA has a binding signal (normalized occupancy) of 0.0714.
GTAATCAA showed a binding signal (normalized occupancy) of 0.0769.
For CATTAAAA, the binding signal (normalized occupancy) was 0.0734.
For CGGCGCAC, the binding signal (normalized occupancy) was 0.076.
ACAGCAAC was tested, and the binding signal (normalized occupancy) was 0.0753.
CCCATAAA gave a binding signal (normalized occupancy) of 0.0795.
In the case of CAGGGTGG, the binding signal (normalized occupancy) is reported as 0.079.
In the case of AAATCCAC, the binding signal (normalized occupancy) is reported as 0.0779.
ACCAGCAG gave a binding signal (normalized occupancy) of 0.0754.
For CAAATGGG, the binding signal (normalized occupancy) was 0.0805.
CTATCAAC gave a binding signal (normalized occupancy) of 0.074.
Sequence CACTAGGG has a binding signal (normalized occupancy) of 0.0765.
For ATGCCGAA, the binding signal (normalized occupancy) was 0.073.
GTAACATA gave a binding signal (normalized occupancy) of 0.0804.
CAATGGGA was tested, and the binding signal (normalized occupancy) was 0.0724.
For CGGGATCA, the binding signal (normalized occupancy) was 0.0802.
For AATATTCC, the binding signal (normalized occupancy) was 0.0758.
With GGCAATGA the binding signal (normalized occupancy) was 0.0794.
With AACTTGTA the binding signal (normalized occupancy) was 0.0732.
In the case of TAGGGCGA, the binding signal (normalized occupancy) is reported as 0.0729.
Sequence CACTGGCC has a binding signal (normalized occupancy) of 0.0739.
With ACCAATCT the binding signal (normalized occupancy) was 0.0745.
TTGCTAAA was tested, and the binding signal (normalized occupancy) was 0.0733.
Work on GAAAGTTC yielded a binding signal (normalized occupancy) of 0.0678.
With AAGCTCTG the binding signal (normalized occupancy) was 0.0679.
CGGTAGGC showed a binding signal (normalized occupancy) of 0.0683.
Sequence CCTTGGTC has a binding signal (normalized occupancy) of 0.0668.
Work on CACCTGGC yielded a binding signal (normalized occupancy) of 0.103.
GCTTACAC showed a binding signal (normalized occupancy) of 0.0745.
CTCACGTC gave a binding signal (normalized occupancy) of 0.0821.
AGTGCTAT showed a binding signal (normalized occupancy) of 0.0853.
Sequence ACACTTTG has a binding signal (normalized occupancy) of 0.0764.
GCTCGCTA gave a binding signal (normalized occupancy) of 0.0764.
In the case of ACTCAAAA, the binding signal (normalized occupancy) is reported as 0.0763.
With TAAAAGCA the binding signal (normalized occupancy) was 0.0757.
Sequence ACGAACAC has a binding signal (normalized occupancy) of 0.0784.
With ACCCCGCC the binding signal (normalized occupancy) was 0.0798.
Work on CCGGCACA yielded a binding signal (normalized occupancy) of 0.0728.
With ATATGGCC the binding signal (normalized occupancy) was 0.0943.
With AAAGACTC the binding signal (normalized occupancy) was 0.069.
In the case of AAATGGGA, the binding signal (normalized occupancy) is reported as 0.0763.
For CTGAAAAC, the binding signal (normalized occupancy) was 0.0806.
GCGCGGAC gave a binding signal (normalized occupancy) of 0.0776.
Work on ATTCCATA yielded a binding signal (normalized occupancy) of 0.0814.
Work on ACTGAGAT yielded a binding signal (normalized occupancy) of 0.0773.
CAACCTAG was tested, and the binding signal (normalized occupancy) was 0.0722.
Work on CACCTCCG yielded a binding signal (normalized occupancy) of 0.0692.
For GACACATC, the binding signal (normalized occupancy) was 0.0782.
For AAGCGATA, the binding signal (normalized occupancy) was 0.0694.
